This passage reports binding signal results from PMC5836133.

The other results are listed elsewhere or left out. At the low end of the ranking, values are background and their order means little.

For the test, the system named is T1, GST-NbGlk1(82-244).
T1 sequence: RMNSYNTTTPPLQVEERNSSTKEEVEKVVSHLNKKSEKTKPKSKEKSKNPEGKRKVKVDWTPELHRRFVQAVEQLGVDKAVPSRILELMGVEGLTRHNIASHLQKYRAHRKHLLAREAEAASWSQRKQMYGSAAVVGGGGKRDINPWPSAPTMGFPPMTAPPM
Nature of the test: protein-binding microarray.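 Also: rank-based score ranging −0.5 to +0.5 with E above 0.45 taken as significant binding.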 The following applies: NbGlk1 is a Golden2-like transcription factor of Nicotiana benthamiana; high values mean tight binding; most listed sequences are background and not binding sites; double strand, one strand shown.
Consider AGGTCCCC, for which the binding signal was -0.355 E-score.

As to ACGACTAG, the binding signal is -0.168 E-score.

With AAATAGCA, the binding signal worked out at 0.0222 E-score.

Sequence ATTACCAG gave a binding signal of 0.219 E-score.

For AGGATTCG, the binding signal was 0.352 E-score.

ATCAAAAC: the binding signal was 0.0607 E-score.

AGAGTGAG: the binding signal was -0.0937 E-score.

As for ACAGGAAG, the binding signal was -0.0521 E-score.

Sequence AATTACAA displayed a binding signal of 0.196 E-score.

Consider AGGTTGAC, for which the binding signal was -0.141 E-score.

For AGCCGCTA, the binding signal was -0.292 E-score.

For CAAGGTCA, the binding signal is -0.172 E-score.

Take AGTTGGAG: the binding signal was -0.104 E-score.

In the case of ATACACCC, the binding signal was 0.0421 E-score.

For the sequence AGTCCAAA, the binding signal amounted to 0.0409 E-score.

Regarding ACTTGTAG, the binding signal is -0.141 E-score.

In the case of ACTCAGCG, the binding signal was -0.101 E-score.

Take AACGGTGC: the binding signal is -0.218 E-score.

AACTTTAC: the binding signal was -0.0483 E-score.

Turning to ATCGTGAC, the binding signal is 0.129 E-score.

For the sequence ATCAGGTC, the binding signal worked out at 0.0814 E-score.

Consider ATCCGACC, for which the binding signal turned out to be 0.158 E-score.

Take ACAGATGT: the binding signal is -0.061 E-score.

For AGCAGAGG, the binding signal is -0.143 E-score.

With ACTACGAC, the binding signal was -0.276 E-score.

Turning to AAACGACA, the binding signal came to 0.0175 E-score.

As for AGCACGCA, the binding signal is -0.135 E-score.

On to AGCCCGGG, for which the binding signal was -0.221 E-score.

With AGGCCCTA, the binding signal is -0.278 E-score.

The sequence ATACATCG showed a binding signal of 0.0121 E-score.

In turn, ATCGGTGG yielded a binding signal of 0.0677 E-score.

As to ACGGACTG, the binding signal is -0.244 E-score.

Consider ATGGATTG, for which the binding signal is 0.21 E-score.

Regarding ATCCAAAT, the binding signal was 0.302 E-score.

As to AAATAGGT, the binding signal amounted to 0.0372 E-score.

AATTTCCG registered a binding signal of 0.257 E-score.

In the case of ATGACTAG, the binding signal is -0.0378 E-score.

In turn, AACCGTTA had a binding signal of 0.0256 E-score.

ATTAACAC came in with a binding signal of 0.122 E-score.

Take CAAAATAA: the binding signal was found to be 0.205 E-score.

Sequence ATACAGAA gave a binding signal of 0.221 E-score.

Consider AGAGACGC, for which the binding signal was -0.266 E-score.

In the case of AGGGGTTA, the binding signal was -0.044 E-score.

Consider AAGGGCAC, for which the binding signal was -0.246 E-score.

Take AAAGGAGC: the binding signal was -0.195 E-score.

With ACTGGGGA, the binding signal is -0.0882 E-score.

Turning to AGCAGGGC, the binding signal is -0.202 E-score.

Consider AAGAGTTC, for which the binding signal was -0.0576 E-score.

Take AGAGACTC: the binding signal is -0.151 E-score.

In the case of ATTTGCAC, the binding signal amounted to 0.305 E-score.

With AAATGGAT, the binding signal worked out at 0.235 E-score.

Turning to ACAGACCA, the binding signal was -0.168 E-score.

Turning to AGTTAAAA, the binding signal is 0.111 E-score.

On to ACACAAAG, for which the binding signal was found to be 0.0708 E-score.

As for ACGACGAT, the binding signal was found to be 0.176 E-score.

For CACTAAGG, the binding signal was -0.235 E-score.

Take ACCTGCTA: the binding signal was -0.159 E-score.

On to ACGTTTCT, for which the binding signal is -0.0416 E-score.

AAGCTACC: the binding signal is -0.2 E-score.

On to AGTCAAAG, for which the binding signal stood at 0.0265 E-score.

As to AATGGTCG, the binding signal was -0.0888 E-score.

ACCCTCCG: the binding signal was -0.0831 E-score.

Turning to AGACGATA, the binding signal was determined as 0.0431 E-score.

As to ATGTACCG, the binding signal is -0.0456 E-score.

In the case of AGCTACCA, the binding signal is -0.229 E-score.

In turn, ATATCTTG registered a binding signal of 0.436 E-score.

For the sequence AGCCCTAG, the binding signal was -0.219 E-score.

In the case of CAATCAAC, the binding signal was determined as 0.175 E-score.

For ATACAACG, the binding signal was -0.0522 E-score.

With CAGACGTC, the binding signal is -0.0262 E-score.

With AGAGGGAC, the binding signal was -0.257 E-score.

Consider ACGTACCA, for which the binding signal is -0.175 E-score.

With ATGTCAAC, the binding signal is -0.00583 E-score.

The sequence AGAAATCA came in with a binding signal of 0.379 E-score.

Take ACGGCGAA: the binding signal is -0.0243 E-score.

CAACGTAG showed a binding signal of 0.0208 E-score.

With ACGTGTGG, the binding signal was -0.156 E-score.

Turning to CACTTCCA, the binding signal was -0.0634 E-score.

Consider AGGAGGTG, for which the binding signal was -0.254 E-score.

ATAGCTAA: the binding signal came to 0.00643 E-score.

ATTGTGTA displayed a binding signal of 0.249 E-score.

CACGGAAC yielded a binding signal of 0.0109 E-score.

Consider AGATGACT, for which the binding signal is -0.146 E-score.

With ACGAGCGT, the binding signal was -0.0911 E-score.

As for ATGTAATA, the binding signal came out at 0.142 E-score.

AGCGTAAT came in with a binding signal of 0.337 E-score.

In the case of AGTCTCCA, the binding signal is -0.119 E-score.

As to AGTGCTTC, the binding signal was -0.22 E-score.

Regarding ACACTGAC, the binding signal was -0.0711 E-score.

AGAGCACA: the binding signal was -0.0673 E-score.

AGTACCAA: the binding signal is -0.111 E-score.

For the sequence AGTCTGCA, the binding signal is -0.151 E-score.

Regarding CAGCGGCA, the binding signal was -0.298 E-score.

On to AGAAGAAC, for which the binding signal was -0.194 E-score.

Regarding AGTCGCAT, the binding signal was -0.224 E-score.

Regarding ACTTCGCT, the binding signal turned out to be 0.0597 E-score.

In the case of ACAGGGCT, the binding signal was -0.207 E-score.

In the case of AACTATGC, the binding signal turned out to be 0.0135 E-score.

AGGTGTAA displayed a binding signal of 0.106 E-score.

Regarding AGTAGTCG, the binding signal is -0.149 E-score.

AATCGACA had a binding signal of 0.156 E-score.

As for CACGGGTC, the binding signal was -0.246 E-score.

ACCTGAAT displayed a binding signal of 0.0675 E-score.

As for CACCAAGG, the binding signal was -0.122 E-score.

As to ATTCTTAA, the binding signal came to 0.276 E-score.

For the sequence AACCTAAA, the binding signal was determined as 0.0417 E-score.

Consider AATCTTGT, for which the binding signal was determined as 0.397 E-score.

CAACATCA gave a binding signal of 0.0662 E-score.

As for AAGCTGAC, the binding signal is -0.198 E-score.

ATACATGG: the binding signal was -0.0664 E-score.

Turning to AAGGTCTA, the binding signal is -0.159 E-score.

Turning to AAACGTTA, the binding signal is -0.0102 E-score.

Turning to AAAACATC, the binding signal was -0.0291 E-score.

Take AAACAACT: the binding signal stood at 0.116 E-score.

As for CAGAGACA, the binding signal is -0.0839 E-score.

The sequence ATCTTCAT registered a binding signal of 0.297 E-score.

With AACCGCCG, the binding signal is -0.115 E-score.

For the sequence ATGGCTTC, the binding signal is -0.188 E-score.

Sequence AAGAGGAT displayed a binding signal of 0.283 E-score.

Take ATTTAATG: the binding signal was 0.189 E-score.

In the case of AATTCGGC, the binding signal stood at 0.115 E-score.

For the sequence AAGAACTA, the binding signal is -0.0204 E-score.

For AATGAGCA, the binding signal is -0.0619 E-score.

As for AAGGCATA, the binding signal was -0.117 E-score.

AGCCAGAA displayed a binding signal of 0.0031 E-score.

With AACCATAG, the binding signal is -0.0512 E-score.

As for ACGAGTCA, the binding signal is 0.0151 E-score.

For ATTGAAGG, the binding signal was -0.0492 E-score.

Take CACCCCCC: the binding signal is -0.263 E-score.

ATCTCTTC gave a binding signal of 0.286 E-score.

As to ACGGCACC, the binding signal is -0.106 E-score.

Take ACCGGCGT: the binding signal was -0.152 E-score.

AGGTCCAC: the binding signal was -0.176 E-score.

For AAGAACAC, the binding signal is -0.0919 E-score.

As for ATGTCTAA, the binding signal was -0.0453 E-score.

ACAGATCG: the binding signal came out at 0.272 E-score.

With ACAAGCGC, the binding signal is -0.129 E-score.

ACTATTGC yielded a binding signal of 0.0395 E-score.

Turning to AGTGAATC, the binding signal stood at 0.143 E-score.

For AAGACTGC, the binding signal is -0.12 E-score.

Regarding AGATGACA, the binding signal was -0.0419 E-score.

As for AAACGAAC, the binding signal was -0.12 E-score.

For ACCTAGAC, the binding signal was -0.203 E-score.

The sequence ATATACAT gave a binding signal of 0.199 E-score.

As to AGGCTTGC, the binding signal was -0.295 E-score.

Consider AGAGTCAG, for which the binding signal is -0.122 E-score.

The sequence AATATCCG came in with a binding signal of 0.426 E-score.

Regarding AATCATCC, the binding signal worked out at 0.137 E-score.

Turning to ACAGCCAT, the binding signal was -0.15 E-score.

Consider AATACCTC, for which the binding signal is -0.00669 E-score.

Sequence ATAAAATA gave a binding signal of 0.22 E-score.

AGAACTAC showed a binding signal of 0.00191 E-score.

AAGTAATT: the binding signal turned out to be 0.184 E-score.

Consider ATAACTGA, for which the binding signal worked out at 0.0441 E-score.

On to CACTCGGA, for which the binding signal worked out at 0.0612 E-score.

As for AATACTTA, the binding signal turned out to be 0.132 E-score.

ACGGTAAA yielded a binding signal of 0.0623 E-score.

For ATGCCAGA, the binding signal is -0.185 E-score.

As to CACCTAAG, the binding signal was -0.132 E-score.

Turning to CAGCCGCA, the binding signal was -0.0956 E-score.

For the sequence AGCTACAA, the binding signal was -0.0901 E-score.

For ACCAGGCG, the binding signal was -0.0622 E-score.

Regarding AAGGCGTG, the binding signal was -0.099 E-score.

For ACGTGTCG, the binding signal was -0.122 E-score.

For the sequence ACGGTCAC, the binding signal is -0.152 E-score.

Turning to AACAATGG, the binding signal was determined as 0.07 E-score.

The sequence AGTCGAGA displayed a binding signal of 0.0423 E-score.

Take ATGGGCAA: the binding signal is -0.063 E-score.

With ACCCTTCT, the binding signal is -0.202 E-score.

For ATCGTACG, the binding signal is 0.122 E-score.

For ATCCGTGG, the binding signal came out at 0.0679 E-score.

Regarding ACCGTTTC, the binding signal was -0.266 E-score.
